Laboratory results taken from US20240239894A1, “THERAPEUTIC BINDING MOLECULES” (MedImmune Limited, priority 2020, published 2024).
Entries after “also recorded” stand apart in the source; their conditions may differ.

Key:
[1] = system: MX-1 breast cancer xenograft; assay: Xenograft efficacy; type: in vivo, CB-17 SCID mice
Procedure: The antitumor activity of antibody intermediate E02-INT and E02-GL-SG3932 was investigated in human tumor xenograft mouse models using immunodeficient CB-17 SCID mice.
The effect of E02-GL-SG3932, the isotype-matched control ADC NIP228-SG3932, and E02-INT, the antibody intermediate of E02-GL-SG3932 was evaluated in the MX-1 breast cancer xenograft model. Animals were injected SC with MX-1 cells and after tumors grew in volume to a mean of 270 mm3, animals were randomized and each mouse received an IV injection of test or control articles.

Rat toxicology study = type: in vivo; details: after 20 or 60 mg/kg dose
Excerpt: The cleavable mal-PEG8-val-ala linker-SG3932 linker-warhead ADC offers the widest relative TI and compares favorably to benchmark. The four comparative linker-warheads are provided below.

[2] = system: HT29+huB7-H4 clone26 cells; assay: Western blot DNA damage response; type: cell-based, human; details: 10 μg/mL ADC or 10 nM warhead, up to 72 hours
Procedure: Following treatment of HT29+huB7-H4 clone26 cells with NIP228, E02-GL, NIP228-SG3932, E02-GL-SG3932, or the warhead SG3924 as a control (10 ug/ml for the mAbs or ADCs and 10 nM for the warhead), lysate was prepared and subjected to western blot analysis with antibodies to pATR, ATR, pChk1, Chk1, pATM, ATM, pChk2, ChK2, pH2AX, H2AX and actin (loading control)—see FIG. 17A.
HT29+huB7-H4 clone 26 and MX-1 cells were plated in 6-well plates at a density of 500,000 and 1,500,000 cells per well respectively in medium containing 10% heat-inactivated FBS. The next day, the plating medium was removed and cells were subjected to incubation with HT29+huB7-H4 clone26 cells with NIP228, E02-GL, NIP228-SG3932, and E02-GL-SG3932 in complete medium at a concentration of 10 μg/mL. The warhead SG3924 was used at 10 nM as a control. After 72 hours, cells were washed once with phosphate-buffered saline (PBS) and then lysed by adding Laemmil Reducing buffer (loading buffer Boston BioProducts). After a brief incubation, cell lysates were collected, equal amounts were loaded onto Bis NuPAGE Novex Bis-Tris gels (Invitrogen) and proteins transferred to polyvinylidene fluoride (PVDF) membranes (Invitrogen). […] After washing, protein bands were detected by using SuperSignal West Femto Chemiluminescent substrate and SuperSignal West Pico Chemiluminescent substrate (Pierce/Thermo Scientific). […]

[3] = system: patient derived xenograft (PDX) models; assay: PDX models, single i.v. dose; type: in vivo, mouse; details: single i.v. injection, 7 mg/kg
Procedure: Tumor tissue fragments were implanted subcutaneously into female athymic nude mice between 6 to 8 weeks of age. When tumors reached the appropriate tumor volume range (typically 150-300 mm^3), animals were randomized into treatment and control groups and dosing was initiated. Tumor-bearing mice were administered a single dose of test articles via intravenous injection. Animals were observed daily and tumor dimensions and body weight were measured and recorded twice weekly. […] Tumor volumes were measured by digital caliper and the volumes of tumors were calculated using the following formula: tumor volume=[length (mm) x width (mm)^2×0.52, where the length and width are the longest and shortest diameters of the tumor, respectively.
Tumor volume at the beginning of treatment is referred as the initial tumor volume (ITV); tumor volume at the time showing maximal response to the ADC treatment is referred to as the end tumor volume (ETV). If ETV is less than ITV, the anti-tumor response is calculated as follows: [(ETV−ITV)/ITV]×100. Otherwise, the anti-tumor response is expressed as percent tumor volume change in the treatment arm relative to the vehicle control arm: 100-[1-((ETV-ITV)treatment/(ETV-ITV)vehicle)×100].

[4] = Serum stability (immunocapture, rLCMS); type: in vitro ADME; details: human serum
Procedure: The stability of E02-GL-SG3932 in cynomolgus monkey, mouse, and rat serum was evaluated using immunoprecipitation followed by reduced reverse phase mass spectrometry (rLCMS). […] The stability of E02-GL-SG3932 in human serum was evaluated by immunocapture using human B7-H4 coated resin, followed by rLCMS. Measurements indicate that drug loss after incubation in human serum was modest, with 81% of SG3924 remaining attached to E02-GL-SG3932 at day 15.

human TNBC PDX models = assay: Panel of 26 human TNBC PDX models; type: in vivo, athymic nude mice
Excerpt: The antitumor activity of E02-GL-SG3932 was investigated in a panel of 26 human TNBC PDX models using immunocompromised athymic nude mice. These PDX models have been established from human tumor samples without prior in vitro culture and have been studied for histology, cytogenetics, genetic and other biological markers, and for their response to standard-of-care therapies. Tumor fragments were subcutaneously transplanted into mice, and once tumors grew in volume to approximately 94 to 189 mm3, animals were randomized and each mouse received a single IV injection of either E02-GL-SG3932 or control articles, at a dose of 1.25 mg/kg or 3.5 mg/kg. To assess the relationship between B7-H4 expression and efficacy, fresh untreated tumors with a volume of around 500 to 1183 mm3 from 3 additional mice from each model were collected, fixed in 10% neutral buffered formalin and subsequently processed and embedded into paraffin blocks. IHC and image analysis techniques were then used to characterize the expression of B7-H4 on tumor cell membranes in each model.

B1: E02-GL-SG3932: E02-GL conjugated via cleavable mal-PEG8-val-ala linker to TOP1i warhead, DAR of 8 (conjugate)
heavy: QVQLQQWGAGLLKPSETLSLACTVYGGSFSGYYWNWIRQPPGKGLEWIGEINHSGSTSYNPSLKSRVTISVDTSKNQFSLKLSSVTAADTAVYYCARVLYNWNVDSWGQGTLVTVSSASTKGPSVFPLAPSSKSTSGGTAALGCLVKDYFPEPVTVSWNSGALTSGVHTFPAVLQSSGLYSLSSVVTVPSSSLGTQTYICNVNHKPSNTKVDKRV[human IgG1 Fc cut from this listing]
light: DIQMTQSPSSLSASVGDRVTITCRASQDIRNDVGWYQQKPGKAPKRLIYAASRLQSGVPSRFSGSGSGTEFTLTISSLQPEDFATYYCLQHNSYPRTFGQGTKVEIKRTVAAPSVFIFPPSDEQLKSGTASVVCLLNNFYPREAKVQWKVDNALQSGNSQESVTEQDSKDSTYSLSSTLTLSKADYEKHKVYACEVTHQGLSSPVTKSFNRGEC
With B1 the TGI ([1]; single IV dose at 1.25 mg/kg) was 98%, the TGI ([1]; single IV dose at 2.5 mg/kg) was 96% and the “Rat toxicology study (# of findings with severity over background/control)” value (Rat toxicology study) was 1/7. For the same molecule, the “DNA damage response signalling (pATM, pATR, pChk1, pChk2, pH2AX)” value [2] was “leads to double strand DNA breaks; also recorded: activation of the DDR signalling pathway”, the “in vivo activity in PDX models” value [3] was “potent in vivo activity” and the “SG3924 remaining attached at day 15” value [4] was 81%. The “% of models with reduction in tumor volume from baseline of 30% or greater” value (human TNBC PDX models; single dose of 1.25 mg/kg, 12 of 26) was 46.2% and the “% of models with reduction in tumor growth from baseline of 30% or greater” value (human TNBC PDX models; single dose of 3.5 mg/kg, 18 of 26) was 69.2%.
